Laboratory results taken from PMC4336329 (PLoS ONE, 2015).
In all, about 310,000 compounds went through this assay and about 2,200 (0.71%) showed an effect of 50% or more. The effect is printed as a negative number. Some of the results follow.

Target: human ether-à-go-go-related gene (hERG) potassium channel (human, UniProt Q12809)
Assay: primary screen, population patch clamp on CHO cells stably expressing hERG

Chain of human ether-à-go-go-related gene (hERG) potassium channel (Q12809 whole entry, looked up): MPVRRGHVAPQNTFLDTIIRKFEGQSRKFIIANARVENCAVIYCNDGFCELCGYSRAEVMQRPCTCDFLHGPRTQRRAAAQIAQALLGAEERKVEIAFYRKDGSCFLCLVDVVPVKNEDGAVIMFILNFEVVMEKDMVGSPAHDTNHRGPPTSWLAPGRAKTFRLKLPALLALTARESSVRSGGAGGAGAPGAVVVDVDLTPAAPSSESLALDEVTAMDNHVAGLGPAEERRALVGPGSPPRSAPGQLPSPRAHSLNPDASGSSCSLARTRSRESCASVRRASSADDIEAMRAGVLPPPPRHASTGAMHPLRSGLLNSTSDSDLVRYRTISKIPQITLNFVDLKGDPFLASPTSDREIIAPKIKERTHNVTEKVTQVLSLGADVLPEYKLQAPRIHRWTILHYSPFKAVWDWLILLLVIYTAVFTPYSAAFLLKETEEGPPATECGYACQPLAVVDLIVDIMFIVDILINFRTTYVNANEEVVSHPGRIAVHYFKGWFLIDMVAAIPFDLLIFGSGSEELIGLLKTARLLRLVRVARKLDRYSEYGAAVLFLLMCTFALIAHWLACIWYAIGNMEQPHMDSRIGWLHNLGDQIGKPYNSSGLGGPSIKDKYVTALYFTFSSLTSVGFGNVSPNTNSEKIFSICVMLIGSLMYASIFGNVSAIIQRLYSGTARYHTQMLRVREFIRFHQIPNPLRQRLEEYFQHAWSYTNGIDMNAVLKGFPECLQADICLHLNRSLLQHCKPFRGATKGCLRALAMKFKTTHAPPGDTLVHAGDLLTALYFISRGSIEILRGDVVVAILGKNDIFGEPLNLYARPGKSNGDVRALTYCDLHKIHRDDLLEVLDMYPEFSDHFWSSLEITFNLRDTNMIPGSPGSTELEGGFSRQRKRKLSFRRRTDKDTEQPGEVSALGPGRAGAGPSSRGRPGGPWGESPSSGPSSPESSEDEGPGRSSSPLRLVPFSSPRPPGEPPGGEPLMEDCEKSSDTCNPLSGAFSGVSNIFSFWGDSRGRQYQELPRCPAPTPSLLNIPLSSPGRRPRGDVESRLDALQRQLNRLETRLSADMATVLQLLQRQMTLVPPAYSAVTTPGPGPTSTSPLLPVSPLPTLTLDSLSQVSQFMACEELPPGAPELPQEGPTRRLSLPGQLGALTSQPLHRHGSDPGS

Row | Structure (SMILES) | hERG current change (%, negative = inhibition) at 1uM [%]
1 | COC(=O)C1CCN(C(=O)CN2C(=O)NC(CCc3ccccc3)C2=O)CC1 (stereo not drawn) | 11.3
2 | CCOc1ccc(-n2c(O)c(C=Nc3ccc(N(CC)CC)cc3)c(=O)[nH]c2=O)cc1 | 12.5
3 | Cc1ccc2nc3c(cc(C(=O)NC4CCCC4)c(=N)n3C3CCCCC3)c(=O)n2c1 | -86.2
4 | COCCn1c(SCC(=O)Nc2nnc(C)s2)nnc1-c1ccco1 | 8.74
5 | COC(=O)[C@@]12CCCN1[C@H](c1ccc(-c3ccccc3)cc1)[C@H]1C(=O)N(C)C(=O)[C@H]12.O=C(O)C(F)(F)F | 0.751
6 | CSc1ncccc1C(=O)Nc1ncc(C)s1 | 11.1
7 | COc1cc(OC)cc(C(=O)Nc2ccc3c(c2)n(C)c(=O)n3C)c1 | 8.55
8 | CCN(CC)C(=O)c1sc2nc(-c3ccccc3)ccc2c1N | 13.3
9 | CC1CC(C)CN(S(=O)(=O)c2ccc(C(=O)N3CCOCC3)cc2)C1 (stereo not drawn) | 5.11
10 | CCOc1ccc(OCCN2C(=O)c3ccccc3C2=O)cc1 | 10.8
11 | CC(C)C(=O)NC(c1ccc([N+](=O)[O-])cc1)c1c(O)ccc2ccccc12 (stereo not drawn) | 0.552
12 | O=C(COC(=O)C1CC1)Nc1ccc([N+](=O)[O-])cc1C(F)(F)F | 7.29
13 | Cc1nn(-c2ccccc2)c2nc3c(cc12)C(=O)CCC3 | 9.08
14 | Cc1ccccc1C(=O)c1cccn1CC(=O)NCc1cccc(Cl)c1 | 19.9
15 | CN(C)CCn1cnc2c(c1=N)C(c1ccccc1)c1ccc3ccccc3c1O2 (stereo not drawn) | -78.1
16 | COc1cc(/C=C2\C(=N)N3N=C(S(C)(=O)=O)SC3=NC2=O)ccc1OS(=O)(=O)c1ccccc1 | 16.4
17 | O=C(CCS(=O)(=O)c1cc(Br)cc2c1N(C(=O)C1CC1)CC2)NCC1CCCO1 (stereo not drawn) | 15.4
18 | C=CCNCc1cccn1-c1ccccc1.O=C(O)C(=O)O | 12.7
19 | Cc1cc2ccccn2c1C(=O)c1cc([N+](=O)[O-])cc([N+](=O)[O-])c1 | 13.1
20 | CCCCCC(=O)Cc1cc(O)cc2c1C(=O)Oc1cc(O)c(C(=O)O)c(CCCCC)c1O2 | 13.1
21 | Cc1nc(C(F)(F)F)ccc1C(=O)Nc1ccccc1N1CCOCC1 | 13.2

Row | Structure (SMILES) | hERG current change (%, negative = inhibition) at 1uM [%]
22 | O=S(=O)(c1ccc2c(c1)OCCO2)N1CCC(c2nc3ccc(Cl)cc3[nH]2)CC1 | -15.7
23 | Cc1ccc(S(=O)(=O)N2CCN(Cc3cccc(F)c3)CC2)cc1 | 7.91
24 | CCOc1ccc(-c2cc(C(=O)NCCCN3CCCC3)c3ccccc3n2)cc1 | 10.7
25 | Cc1ccc(C(=O)O)cc1NC(=S)NC(=O)Cc1ccccc1 | 10.8
26 | Cl.O=[N+]([O-])c1ccc(O)c(Nc2ncnc3ccc(Br)cc23)c1 | 14.6
27 | N#C/C(=N\Nc1ccc(Cl)cc1)C(=N)N1CCCCCC1 | 40.5
28 | COCCN(C(=O)CC1C(=O)NCCN1Cc1ccc(-c2ccccc2)cc1)C(C)C (stereo not drawn) | 14.2
29 | CC1CCCN(c2ccc(C(=O)NCc3ccccc3)cn2)C1 (stereo not drawn) | 0.803
30 | COc1ccc(-c2nn(-c3ccccc3C)cc2CNC(C)c2cn(C)nc2C)cc1F (stereo not drawn) | 2.8
31 | COc1ccc(N(C(=O)COc2ccc(F)cc2)S(=O)(=O)c2ccc(C)cc2)cc1 | 15
32 | O=C(c1ccco1)N1CCN(C(=O)C(c2ccccc2)c2ccccc2)CC1 | 12
33 | O=C1NC(c2ccc(-c3ccccc3[N+](=O)[O-])o2)C(C(=O)c2ccccc2)C(O)(C(F)(F)F)N1 (stereo not drawn) | 10.3
34 | CC1CCCN(C(=O)CN2C(=O)CSc3ccc(S(=O)(=O)N4CCOCC4)cc32)C1 (stereo not drawn) | 11.6
35 | COc1cccc(/C=N/n2c(-c3n[nH]c4c3CCC4)n[nH]c2=S)c1O | 17.7
36 | CCC(CC)C(=O)Nc1nnc(S(=O)(=O)N2CCCC2)s1 | 2.83
37 | Nc1ccc(-c2nnc(-c3ccc(-c4ccccc4)cc3)o2)cc1 | 5.86
38 | COc1cc(C)nc(NC(=O)COc2ccc(Cl)cc2C)n1 | 4.17
39 | CCOC(=O)N1c2ccccc2C=CC1OCC (stereo not drawn) | 17.7
40 | COc1ccc(C(CC(=O)O)NC(=O)Nc2ccccc2)cc1OC (stereo not drawn) | 11.6
41 | Cn1c(SCc2nc3ccccc3n2CCO)nc2ccccc21 | 21.5
42 | NS(=O)(=O)c1cccc(NC(=O)CSc2nnc(C3CC3)n2Cc2ccccc2)c1 | 0.0501

Row | Structure (SMILES) | hERG current change (%, negative = inhibition) at 1uM [%]
43 | COc1cc(C(=O)Nc2nc(-c3ccc(C)cc3)cs2)ccc1OCC(=O)N1CCOCC1 | 13.9
44 | CCn1c(/C=C/Nc2ccccc2)[n+](CC)c2ccc(Cl)cc21.[I-] | -82.8
45 | CN(C)C(CNC(C(=O)Nc1ccc(F)cc1)c1ccccc1)c1ccccc1 (stereo not drawn) | -18.4
46 | Cc1ccc(-n2cc(CNCCN3CCOC3=O)c(-c3cccc(C)c3)n2)cc1 | -24.3
47 | COc1ccc(OCCC(=O)OCC(=O)NC(=O)NC2CCCCC2)cc1 | 13.8
48 | CN(C)c1ccnc2sc3c(NCC(O)CO)ncnc3c12 (stereo not drawn) | 3.7
49 | Cc1cccc(NC(=S)N(CCN(C)C)Cc2cc3cc(C)ccc3[nH]c2=O)c1 | 9.8
50 | COc1ccc(CCNC(=O)CN(Cc2ccc(Cl)cc2)S(C)(=O)=O)cc1OC | 9.31
51 | CCOC(=O)C(=CNc1nc(-c2ccccc2)c(C(=O)Nc2ccc(-c3ccccc3)cc2)s1)C(=O)OCC | 14.3
52 | CCOC(=O)N1CCN(C(=O)/C(=C/c2cccc3ccccc23)NC(=O)c2ccc(OC)c(OC)c2)CC1 | 3.69
53 | O=C(Nc1ccccc1)c1ccccc1CCc1ccccc1 | 13
54 | O=C1C2C3C=CC(C3)C2C(=O)N1CCN1CCN(S(=O)(=O)c2ccc3ccccc3c2)CC1 (stereo not drawn) | 6.34
55 | COc1ccc(C(C)=O)cc1COC(=O)c1c(C)noc1C | 4.25
56 | CSCC[C@H](NC(=O)c1ccc(Cl)c([N+](=O)[O-])c1)c1nc2ccccc2[nH]1 | 4.82
57 | O=S(=O)([O-])CCS.[Na+] | 20.3
58 | CN(c1ccccc1)S(=O)(=O)c1cccc(NS(=O)(=O)c2ccc(/C=C/C(=O)O)cc2)c1 | 5.57
59 | COc1ccc(N(C)C(=O)c2cc3c(s2)-c2ccccc2S(=O)(=O)C3)cc1 | -14.5
60 | CCN1CCN(CCNC(=O)Cn2c(=O)c3cccn3c3ccc(F)cc32)CC1 | 15.9
61 | CC1CCc2cc(F)cc3c(=O)c(C(=O)O)cn1c23 (stereo not drawn) | 12.7
62 | COc1ccc(C2CC(=O)n3nc(C45CC6CC(CC(C6)C4)C5)nc3S2)cc1OC (stereo not drawn) | 14.3
63 | CCNc1nc(Oc2ccc(C#N)cc2)cc(C(F)(F)F)n1 | 8.21

Row | Structure (SMILES) | hERG current change (%, negative = inhibition) at 1uM [%]
64 | O=c1oc2ccccc2c(NC2CCCCC2)c1NS(=O)(=O)c1ccc(Br)cc1 | 8.54
65 | Cc1ccccc1C(=O)N/N=C/c1ccc(OCC(=O)N2CCCCC2)cc1 | 10.3
66 | CC1(C)CC(n2[nH]c(=O)c3c2NC(=O)CSC3c2ccccc2)CCO1 (stereo not drawn) | 10.5
67 | N#Cc1nc(-c2ccco2)oc1N1CCC(Cc2ccccc2)CC1 | 8.96
68 | COc1ccc(C(=O)NCc2nnc(SCC(=O)NC3CCCCC3)o2)cc1 | 11.7
69 | Cc1cc(C)cc(C(=O)NC(CC(N)=O)c2ccc(N3CCC(Cc4ccccc4)CC3)c([N+](=O)[O-])c2)c1 (stereo not drawn) | 7.62
70 | COC(=O)C1=C(C)NC(=O)/C1=C\N(C)C | 12.3
71 | Cc1nn(C)c(C(=O)N/N=C/c2cc3c(cc2Br)OCO3)c1Br | 7.14
72 | CC1=C(C(=O)OCC2CCCO2)C(c2ccccc2Cl)NC(=O)N1 (stereo not drawn) | 14.9
73 | Cn1c(=O)n(Cc2ccc(Cl)cc2)c(=O)c2c1nc1n2CCN1Cc1ccco1 | 8.92
74 | CNC(=O)c1[nH]cnc1C(=O)Nc1ccc(C)cc1 | 13.2
75 | O=C(Nc1ccc(N2CCCCC2)c(Cl)c1)c1ccc2c(c1)OCCO2 | 10.7
76 | O=C(CNC(=O)c1ccco1)OCc1ccc(C(=O)c2ccccc2)cc1 | 2.49
77 | CC(CCCC(C)(C)O)NC(=O)c1ccc2oc(CCc3ccccc3)nc2c1 (stereo not drawn) | 12.2
78 | Cc1ccc2c(c1)C1(SCCS1)C(=O)N2 | 13.5
79 | COCCn1c(SC(C)C(=O)NC2CC2)nnc1-c1cccc(C)c1 (stereo not drawn) | 3.11
80 | Cc1occc1C(=O)N1CCCC(Nc2ccc(F)c(F)c2)C1 (stereo not drawn) | 2.94
81 | O=C(COc1cccc(C(F)(F)F)c1)N1CCN(c2ccc(O)cc2)CC1 | 0.781
82 | Nc1nc(N)c2nc(CNc3ccc(C(=O)NC(CCC(=O)O)C(=O)O)cc3)cnc2n1 (stereo not drawn) | 8.4
83 | CCN(CC(=O)Nc1ccc(NC(C)=O)cc1)C(=O)c1n[nH]c(=O)c2ccccc12 | -41.2
84 | O=C(COc1ccccc1Br)NCc1ccccn1 | 2.65
